Data on 31 sequences can be found in paper PMC12820563.

The list shows a part of the results. The list includes weakly bound sequences.

The test deals with T1, MBP-FoxP3dN (UniProt Q99JB6).
T1 sequence: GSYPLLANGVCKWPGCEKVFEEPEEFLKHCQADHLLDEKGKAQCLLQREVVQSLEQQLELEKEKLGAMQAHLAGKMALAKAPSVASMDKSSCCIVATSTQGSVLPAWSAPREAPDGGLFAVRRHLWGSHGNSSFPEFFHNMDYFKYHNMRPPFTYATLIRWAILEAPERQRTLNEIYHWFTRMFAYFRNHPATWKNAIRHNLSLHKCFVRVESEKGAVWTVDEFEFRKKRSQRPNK
The test can be described thus: PD-seq (MBP pull-down with sequencing). Particulars: 20 mM Tris-HCl pH 7.5, 100 mM NaCl, 1.5 mM MgCl2, 0.4 uM protein, 0.1 uM dsDNA library, 30 min, room temperature, amylose pull-down; high values mean tight binding; double strand, one strand shown.
For “GATGATTGTTCTCCCAGCTGATGAATTGAAGTCCTCGAGTAAACAAATTTTCCTAATCTTTCTGTTCAAGCGCCATCTAC”, the binding signal (RPM ratio (pull-down/input)) turned out to be 0.299.

As to “GATGATTGTTCTCCCAGCTGATGAATTGTAAGGTTCGAGTAAACAAATTTTCCTAATCTTTCTGTTCAAGCGCCATCTAC”, the binding signal (RPM ratio (pull-down/input)) is 0.403. As to “GATGATTGTTCTCCCAGCTGATGAATTCCGTAATTCGAGTAAACAAATTTTCCTAATCTTTCTGTTCAAGCGCCATCTAC”, the binding signal (RPM ratio (pull-down/input)) is 1.22. As to “GATGATTGTTCTCCCAGCTGATGAATTACATACCTCGAGTAAACAAATTTTCCTAATCTTTCTGTTCAAGCGCCATCTAC”, the binding signal (RPM ratio (pull-down/input)) is 0.535.

On to “GATGATTGTTCTCCCAGCTGATGAATTCGCTCTTTCGAGTAAACAAATTTTCCTAATCTTTCTGTTCAAGCGCCATCTAC”, for which the binding signal (RPM ratio (pull-down/input)) worked out at 0.33. As for “GATGATTGTTCTCCCAGCTGATGAATTTTTTCAGTCGAGTAAACAAATTTTCCTAATCTTTCTGTTCAAGCGCCATCTAC”, the binding signal (RPM ratio (pull-down/input)) stood at 0.186. The value for “GATGATTGTTCTCCCAGCTGATGAATTGCAACTCTCGAGTAAACAAATTTTCCTAATCTTTCTGTTCAAGCGCCATCTAC” was 2.79. The value for “GATGATTGTTCTCCCAGCTGATGAATTTAGCGAATCGAGTAAACAAATTTTCCTAATCTTTCTGTTCAAGCGCCATCTAC” was 0.305; that for “GATGATTGTTCTCCCAGCTGATGAATTTGAATATTCGAGTAAACAAATTTTCCTAATCTTTCTGTTCAAGCGCCATCTAC” was 0.866; that for “GATGATTGTTCTCCCAGCTGATGAATTCGTTATGTCGAGTAAACAAATTTTCCTAATCTTTCTGTTCAAGCGCCATCTAC” was 3. As for “GATGATTGTTCTCCCAGCTGATGAATTGAGATACTCGAGTAAACAAATTTTCCTAATCTTTCTGTTCAAGCGCCATCTAC”, the binding signal (RPM ratio (pull-down/input)) turned out to be 0.763. For the sequence “GATGATTGTTCTCCCAGCTGATGAATTACTACCCTCGAGTAAACAAATTTTCCTAATCTTTCTGTTCAAGCGCCATCTAC”, the binding signal (RPM ratio (pull-down/input)) was 0.341. Turning to “GATGATTGTTCTCCCAGCTGATGAATTCTAAAGTTCGAGTAAACAAATTTTCCTAATCTTTCTGTTCAAGCGCCATCTAC”, the binding signal (RPM ratio (pull-down/input)) turned out to be 0.255.

As to “GATGATTGTTCTCCCAGCTGATGAATTCCCCGTGTCGAGTAAACAAATTTTCCTAATCTTTCTGTTCAAGCGCCATCTAC”, the binding signal (RPM ratio (pull-down/input)) worked out at 0.28. The value for “GATGATTGTTCTCCCAGCTGATGAATTTTATGCTTCGAGTAAACAAATTTTCCTAATCTTTCTGTTCAAGCGCCATCTAC” was 0.836; that for “GATGATTGTTCTCCCAGCTGATGAATTGAGCGCATCGAGTAAACAAATTTTCCTAATCTTTCTGTTCAAGCGCCATCTAC” was 1.34.

In the case of “GATGATTGTTCTCCCAGCTGATGAATTTGTCGTCTCGAGTAAACAAATTTTCCTAATCTTTCTGTTCAAGCGCCATCTAC”, the binding signal (RPM ratio (pull-down/input)) is 5.07. Regarding “GATGATTGTTCTCCCAGCTGATGAATTGAGGTCGTCGAGTAAACAAATTTTCCTAATCTTTCTGTTCAAGCGCCATCTAC”, the binding signal (RPM ratio (pull-down/input)) came to 0.464. Regarding “GATGATTGTTCTCCCAGCTGATGAATTTCTATAGTCGAGTAAACAAATTTTCCTAATCTTTCTGTTCAAGCGCCATCTAC”, the binding signal (RPM ratio (pull-down/input)) turned out to be 0.277.

Consider “GATGATTGTTCTCCCAGCTGATGAATTCGGTCATTCGAGTAAACAAATTTTCCTAATCTTTCTGTTCAAGCGCCATCTAC”, for which the binding signal (RPM ratio (pull-down/input)) worked out at 0.728. Consider “GATGATTGTTCTCCCAGCTGATGAATTCGACAATTCGAGTAAACAAATTTTCCTAATCTTTCTGTTCAAGCGCCATCTAC”, for which the binding signal (RPM ratio (pull-down/input)) is 0.414.

For the sequence “GATGATTGTTCTCCCAGCTGATGAATTTAAGCTTTCGAGTAAACAAATTTTCCTAATCTTTCTGTTCAAGCGCCATCTAC”, the binding signal (RPM ratio (pull-down/input)) amounted to 0.885.

Consider “GATGATTGTTCTCCCAGCTGATGAATTCATGTGATCGAGTAAACAAATTTTCCTAATCTTTCTGTTCAAGCGCCATCTAC”, for which the binding signal (RPM ratio (pull-down/input)) came out at 0.552. For “GATGATTGTTCTCCCAGCTGATGAATTGTTGACCTCGAGTAAACAAATTTTCCTAATCTTTCTGTTCAAGCGCCATCTAC”, the binding signal (RPM ratio (pull-down/input)) came out at 3.26. “GATGATTGTTCTCCCAGCTGATGAATTTCTTCGCTCGAGTAAACAAATTTTCCTAATCTTTCTGTTCAAGCGCCATCTAC”: the binding signal (RPM ratio (pull-down/input)) was found to be 0.197. With “GATGATTGTTCTCCCAGCTGATGAATTACATCGCTCGAGTAAACAAATTTTCCTAATCTTTCTGTTCAAGCGCCATCTAC” the figure was 0.487; with “GATGATTGTTCTCCCAGCTGATGAATTTAGCATCTCGAGTAAACAAATTTTCCTAATCTTTCTGTTCAAGCGCCATCTAC”, 6.55; with “GATGATTGTTCTCCCAGCTGATGAATTTAATAGGTCGAGTAAACAAATTTTCCTAATCTTTCTGTTCAAGCGCCATCTAC”, 0.937.

As to “GATGATTGTTCTCCCAGCTGATGAATTGCGACTCTCGAGTAAACAAATTTTCCTAATCTTTCTGTTCAAGCGCCATCTAC”, the binding signal (RPM ratio (pull-down/input)) amounted to 2.99.

For “GATGATTGTTCTCCCAGCTGATGAATTGCCGATATCGAGTAAACAAATTTTCCTAATCTTTCTGTTCAAGCGCCATCTAC”, the binding signal (RPM ratio (pull-down/input)) was 0.657. Consider “GATGATTGTTCTCCCAGCTGATGAATTATCATGTTCGAGTAAACAAATTTTCCTAATCTTTCTGTTCAAGCGCCATCTAC”, for which the binding signal (RPM ratio (pull-down/input)) stood at 0.619.
